Experimental data taken from PubChem BioAssay AID1963576 (National Center for Advancing Translational Sciences (NCATS), 2024).
About 60 (0.1%) of roughly 46,000 compounds were called active. About 3% were inconclusive and are not listed. Calls follow the shape of the dose curve; as a rule, active = well fitted inhibition curve with a large enough effect; inconclusive = small, poorly fitted or top-dose-only effect; inactive = no such curve, though single readings can be large or run the other way. The list shows a part of the results.

Assay: Primary qHTS assay for Inhibitors of ovarian cancer metastasis using an organotypic tumor microenvironment (TME) model. Also: nearly all actives have a fitted effect of over 65% in size.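 As to activity change, negative = inhibition: plate controls were DMSO wells for no effect and tomatine positive control wells for full effect.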
Settings: SKOV3ip1-GFP adhesion/invasion on 3D omental model, fluorescence; series mostly up to 45.8 µM; activity change, negative = inhibition: at the top concentration
Procedure, shortened: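 A 3D layer of primary human omental fibroblasts, mesothelial cells, fibronectin and collagen I, grown 48 hr, received SKOV3ip1-GFP cells in serum-free medium plus compounds at 0.36-46 umol/L. After 2 hr RT and 16 hr 37 C, fixed adherent GFP cells were counted; normalized to DMSO and tomatine.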

Activity change, negative = inhibition, inactive:
CC(C)Oc1cccc(NC(=O)C2CCN(S(=O)(=O)Cc3ccccc3)CC2)c1 -9.4%, O=S(=O)(Nc1cccc(Cl)c1)c1ccc2[nH]c3c(c2c1)CCCCCC3 -0.166%, CCc1ccc(CNC(=O)c2ccc(CSc3nc4ccncc4n3Cc3ccc(OC)cc3)cc2)cc1 7.14%, O=C(CSc1nnc(COc2ccc(Cl)cc2)o1)Nc1ccccc1 0.332%, Cc1ccccc1-c1nnc(CN2CCN(c3cc(Cl)ccc3C)CC2)o1 -6.02%, Cc1nc(N2CCCC2)c2c(C(=O)Nc3ccc(C)c(Cl)c3)c(C)oc2n1 -0.31%, CCOc1ccccc1C1N=C(N)Nc2nc3ccccc3n21 (stereo not drawn) -14.9%, CCC(CC)C(=O)Nc1cc(-c2cn3cccnc3n2)ccc1OC 6.62%, CCOC(=O)N1CCC(NC(=O)c2ccc3c(c2)N(Cc2cccc(C)c2)C(=O)c2ccccc2S3(=O)=O)CC1 -6.01%, COc1ccc(C(CC(=O)Nc2ccc(C)cn2)N2Cc3ccccc3C2=O)cc1OC (stereo not drawn) 23.5%, CCC(=O)N1CCc2cc(Br)cc(S(=O)(=O)CCC(=O)Nc3cccc(CC)c3)c21 -6.34%, Cc1cccc(N2C(=O)C(CC(=O)Nc3cccc(F)c3)N(Cc3cccs3)C2=O)c1 (stereo not drawn) 12.5%, O=S(=O)(c1ccc(F)cc1)N1CCC(Oc2ccc(-n3cnnn3)cc2)CC1 -6.24%, CCOc1ccc(CCNC(=O)CCCc2cc(-c3ccc(OCC)cc3)on2)cc1 28.6%, CC(NC(=O)C1(c2cccs2)CCOCC1)c1ccccc1 (stereo not drawn) 1.25%, CCCN(CCC)CCCNC(=O)c1cc2c(=O)oc3ccc(C)cc3c2s1 23.1%, Cc1ccc(CN2CCSc3ccc(C(=O)Nc4ccc(Cl)cc4)cc32)cc1 10.5%, Cc1ccc(NC(=O)C2CCCN(c3ncnc4c3nc3n4CCCCC3)C2)cc1F (stereo not drawn) 10.2%, CN(C)S(=O)(=O)n1cc(/C=C(\NC(=O)c2ccccc2F)C(=O)NCCCn2ccnc2)c2ccccc21 26.2%, OC(c1cc(C(F)(F)F)nc2c(C(F)(F)F)cccc12)C1CCCCN1 (stereo not drawn) -29.6%, Cc1ccccc1CN1CCC(CNc2ncnc3onc(-c4ccc(Cl)cc4)c23)CC1 1.79%, O=C(Cc1csc2ccccc12)NCc1cccc(Br)c1 1.06%, Cc1ccc2nc(/C(C#N)=C/c3cccc(Br)c3)[nH]c2c1 -1.38%, O=C(NCc1ccccc1Cl)C1CCN(S(=O)(=O)c2ccc3c(c2)CCCN3C(=O)C2CCC2)CC1 -12.3%, Cc1cc(C)cc(Oc2coc3c(CN4CCN(C)CC4)c(O)ccc3c2=O)c1 -5.67%, COc1ccc(Nc2c(-c3ccc(Cl)cc3)nc3cnccn23)cc1OC 9.85%, O=C(Nc1cccc(C(F)(F)F)c1)C1CCN(c2nnc(-n3cccc3)s2)CC1 -2.27%, COc1cc(NS(=O)(=O)c2ccc(NC(=O)C(C)Oc3ccc(Cl)cc3Cl)cc2)nc(OC)n1 (stereo not drawn) -5.39%, Cc1nc2cccnc2n1-c1cccc(C(=O)NCc2ccc(OC(C)C)cc2)c1 -6.48%, O=C(O)CC(NS(=O)(=O)c1ccc(Cl)s1)c1ccccc1 (stereo not drawn) -14.5%, CCOc1ccc(NC(=O)c2c(NC(=O)c3ccco3)sc3c2CCC(C(C)(C)C)C3)cc1 (stereo not drawn) -4.9%, CCOc1ccc(NC(=O)c2sc3nc4c(cc3c2N)CCCCCC4)cc1 7.3%, Cc1ccc(OCC(=O)Nc2ccccc2C(=O)OCc2cc(=O)n3nc(C4CC4)sc3n2)cc1 10.3%, O=C(c1cccs1)N(Cc1cccnc1)c1nc2ccc(F)cc2s1 6.23%, CC1CCN(C(=O)c2c(NC(=O)c3ccccc3F)sc3c2CCC(C(C)(C)C)C3)CC1 (stereo not drawn) -5%, Cc1nc2ccccn2c(=O)c1NC(=O)c1c(F)cccc1F 3.49%, COc1ccc(CCN2CCN(CCCc3ccccc3)CC2)cc1OC -1.99%, CC(=CC(=O)Nc1ccccc1C(=O)O)c1ccc2ccccc2c1 -13.8%, Oc1ccc(-c2nc3ccccn3c2Nc2ccc3c(c2)OCCO3)cc1 -4.57%, CCCCNS(=O)(=O)c1ccc2nc(-c3cccnc3)cc(C(=O)NCCC)c2c1 -5.88%, CCn1cc(S(=O)(=O)c2ccc(OC)cc2)c(=O)c2cc(F)c(N3CCC(C)CC3)cc21 -7.34%, CNCCCC12CCC(c3ccccc31)c1ccccc12 -23.9%, CCc1c(O)cc(O)c(C(=O)c2ccc(OCCN3CCOCC3)c(OC)c2)c1CC(=O)N(CCOC)CCOC 14.3%, CCOc1ccc(CNC(=O)C2CCN(S(=O)(=O)N3CCCCC3)CC2)cc1 -5.09%, COCCCNC(=O)c1ccc2nc(Cc3ccc(OC)cc3)oc2c1 27%, CCCc1nn2c(=O)cc(COC(=O)c3cccc(NC(=O)CCc4ccccc4)c3)nc2s1 -1.67%, NCCCCCc1nnc(SCc2ccc(F)cc2)o1 -4.51%, COc1ccc(NC(=O)CSc2nc3ccccc3[nH]2)cc1 5.03%

outcome, inactive:
CCOc1ccc(C(=O)Nc2c(C(=O)c3ccccc3)oc3ccccc23)cc1, CCOC(=O)c1c(S(=O)(=O)N2CCC(C(=O)N3CCN(c4cccc(C)c4C)CC3)CC2)c(C)n(C)c1C, COC(=O)c1c(C)oc2ccc(N(C(=O)c3ccncc3)S(=O)(=O)c3cc(C)c(C)cc3C)cc12, COc1cccc(CNC(=O)Cn2c(=O)oc3cc(S(=O)(=O)N4CCCC4)ccc32)c1, Cc1ccc(-c2ccc(=O)n(Cc3ccc(F)cc3)n2)cc1, Cc1ccc(Nc2cc(C)nc3nc(Cc4ccc(Cl)cc4)nn23)cc1, COc1cccc(CNC(=O)c2nnn(CC(=O)Nc3cc(Cl)ccc3C)c2N)c1, Cc1nc2cccnc2n1C1CCN(S(=O)(=O)c2ccc(Cl)cc2)CC1, CCn1cc(C(=O)N2CCN(c3cc(Cl)ccc3C)CC2)c2cc(OC)c(OC)cc2c1=O, COc1cccc(C(=O)Nc2cc(-c3cn4cccnc4n3)ccc2C)c1OC, CCCN(CCC)CCCNC(=O)C1CCC(CNS(=O)(=O)c2cccc3nsnc23)CC1 (stereo not drawn), Cc1ccc(CN(Cc2ccco2)C(=O)COc2c(C)cc(C)cc2C)cc1, Cc1ccc2nc(COc3ccc(NC(=O)COc4ccccc4F)cc3)cc(=O)n2c1, CCOC(=O)C1CCN(C(=O)CSc2n[nH]c(-c3ccccc3)n2)CC1, Cc1cccc(OCc2nc(C#N)c(NCc3ccccc3Cl)o2)c1
